According to PubChem BioAssay AID1508623 (National Center for Advancing Translational Sciences (NCATS), 2021):
The campaign covered roughly 48,000 compounds. About 450 (0.94%) were called active. Roughly 19% stayed inconclusive and do not appear here. The call rests on the fitted dose curve; in most records, active means well fitted inhibition curve with a large enough effect; inconclusive means small, poorly fitted or top-dose-only effect; inactive means no such curve, though single readings can be large or run the other way. Some of the results follow.

Experiment: Primary qHTS for Identification of Small Molecule Inhibitors of Huntingtin Promoter Activity; further: nearly all actives have a fitted effect of over 50% in size
Conditions: HEK293 HTT promoter firefly luciferase reporter (activity 0% = vehicle and -100% = no light), 24 h; series mostly up to 57.5 µM; activity change, negative = inhibition: at the top concentration
In short: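 Firefly luciferase readout (Dual-Glo, 10 min RT) after 24 h, 37 °C compound exposure (final up to 57.5 uM) of HEK293 reporter cells cultured 24 h beforehand; PTC124 at 50 uM final as control inhibitor; activity scaled vehicle 0%, zero RLU -100%.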
Potency means the concentration at half of the fitted maximal effect.

Row | Structure (SMILES) | activity change, negative = inhibition | Potency
1 | COc1ccc(CCCc2nnc(SCC(=O)Nc3ccc(C)cc3C)o2)cc1 | inactive: -19.8% | –
2 | CCN(CC)S(=O)(=O)c1cc(-c2onc(C)c2C)ccc1OC | inactive: -17.4% | –
3 | CCc1ccc(C(=O)c2cn(CC(=O)Nc3ccc(OC)cc3OC)c3ccc(CC)cc3c2=O)cc1 | inactive: -25.5% | –
4 | COc1cccc(C(=O)Nc2cccc(C(=O)OCc3cc(=O)n4nc(C(C)C)sc4n3)c2)c1 | inactive: 18.8% | –
5 | Cc1ccc(N(C)C(=O)c2cnc(N3CCOCC3)c3ccccc23)cc1C | inactive: -8.96% | –
6 | CCOc1ccc(-c2nc(SCC(=O)NCCOC)c(-c3ccc(OC)c(OC)c3)[nH]2)cc1 | inactive: -3.82% | –
7 | CSc1nc2sc3c(c2c(=O)n1-c1ccc(F)c(Cl)c1)CCN(C(C)=O)C3 | inactive: -6.62% | –
8 | Cc1cc(C)cc(NC(=O)CSc2nc(-c3cccc(Cl)c3)nc3c2Cc2c(CO)cnc(C)c2O3)c1 | inactive: -5.68% | –
9 | CCOC(=O)NC1(C(F)(F)F)NC(=O)N(c2ccc(C)c(C)c2)C1=O (centres undefined) | inactive: -15.7% | –
10 | O=C(CSC1=Nc2ccccc2C2=NC(Cc3ccccc3)C(=O)N12)Nc1ccccc1F (centres undefined) | inactive: -27.3% | –
11 | Cc1cc(C)cc(OCC(=O)Nc2ccc(S(=O)(=O)Nc3onc(C)c3C)cc2)c1 | inactive: -4.76% | –
12 | COc1ccc(-n2nc(C(=O)Nc3cccc(C(F)(F)F)c3)c3c4ccccc4n(C)c3c2=O)cc1 | inactive: -16.8% | –
13 | Cc1nn(CC(=O)NCc2ccccc2Cl)c(=O)c2nn(-c3ccccc3)c(C)c12 | inactive: 3.76% | –
14 | CCN1CCC[C@H]1CNC(=O)c1c(OC)ccc(Br)c1OC | inactive: 2.35% | –
15 | Cc1ccccc1NC(=O)CSC1=Nc2ccccc2C2=NC(CCC(=O)NCc3ccccc3)C(=O)N12 (centres undefined) | inactive: -17.3% | –
16 | Cc1nc(CC(=O)Nc2ccc(N(C)C)cc2)cs1 | inactive: 28% | –
17 | COc1ccccc1CNC(=O)CN1C(=O)COc2ccc(S(=O)(=O)N3CCCCC3)cc21 | inactive: -9.77% | –
18 | O=S(=O)(NCc1cccc(Br)c1)c1ccc(-c2cc(C(F)(F)F)on2)s1 | inactive: -10.7% | –
19 | Cc1cc(C)cc(N2C(=O)N(CC(=O)c3ccc(Br)cc3)c3ccccc3S2(=O)=O)c1 | inactive: -23.3% | –
20 | COC(=O)c1sccc1S(=O)(=O)N(CC(=O)NCc1ccc(C)cc1)c1ccc(Cl)cc1 | inactive: -6.73% | –
21 | CCN(CC)C(=O)c1sc2c(c1C)c(=O)n(-c1ccc(Cl)c(Cl)c1)c(=O)n2Cc1cc(=O)n2c(C)cccc2n1 | inactive: 0% | –
22 | CCCCn1cc(S(=O)(=O)c2ccc(OC)cc2)c(=O)c2cc(F)c(N3CCCC3)cc21 | inactive: 12.5% | –
23 | Cc1ccc(-c2nc(C)c(CCNS(=O)(=O)c3ccccc3F)s2)cc1 | inactive: -12.4% | –

Row | Structure (SMILES) | activity change, negative = inhibition | Potency
24 | CN1C(=O)C(C)(C)c2cc(S(=O)(=O)NCc3ccc(C(=O)Nc4ccc(Cl)cc4)cc3)ccc21 | – | active: 17.8 µM
25 | Cc1cccc(NC(=O)N2CCC(CN3CCc4ccccc4C3)CC2)c1C | inactive: -16.5% | –
26 | CCOc1ccc(NC(=O)Cn2cc(C(=O)c3ccc(C)c(C)c3)c(=O)c3cc4c(cc32)OCCO4)cc1 | inactive: -7.78% | –
27 | CCOC(=O)c1cccc(NC(=O)CN2C(=O)CC(C)(C)Sc3ccccc32)c1 | inactive: -27.2% | –
28 | CCOC(=O)c1cc(S(=O)(=O)N2CCN(c3ccc(OC)cc3)CC2)[nH]n1 | inactive: -30.8% | –
29 | COc1ccc(CCNC(=O)CCCn2c(=O)c3ccccc3n(Cc3ccccc3C)c2=O)cc1OC | inactive: 0.305% | –
30 | Cc1ccc(-n2ncc(C(=O)NCCN3CCc4ccccc4C3)c2C2CCN(C(=O)OC(C)(C)C)CC2)cc1 | inactive: -28.4% | –
31 | Cc1cccc(C)c1OCc1nc2c3cnn(-c4cccc(F)c4)c3ncn2n1 | inactive: -2.21% | –
32 | Cc1ccc(Nc2c(-c3ccc(N4CCOCC4)cc3)nc3ncccn23)cc1 | inactive: 5.78% | –
33 | Cc1ccc(C(=O)Nc2c(C(=O)NCc3ccc(Cl)cc3)sc3nc(C)cc(C)c23)cc1 | inactive: -11.7% | –
34 | CCN1CCN(c2cc3c(cc2F)c(=O)c(C(=O)O)cn3C2CC2)CC1 | inactive: -1.2% | –
35 | COc1cccc(NC(=O)CSc2nc3ccccc3nc2N2CCOCC2)c1 | inactive: -29% | –
36 | CN(CC(=O)Nc1cccc(C(F)(F)F)c1)S(=O)(=O)c1ccc2[nH]c3c(c2c1)CCCC3 | inactive: -19.4% | –
37 | CCc1ccc(CN2C(=O)c3ccccc3C2C(=O)NCCc2ccc(OC)c(OC)c2)cc1 (centres undefined) | inactive: -14.5% | –
38 | COc1ccc(NC(=O)c2cc3c(=O)[nH]c4ccccc4c3n2C)cc1Cl | inactive: -1.5% | –
39 | COc1ccc(CC(=O)NCc2nc3cccnc3n2Cc2ccc(F)cc2)cc1OC | inactive: -12.2% | –
40 | Cc1ccccc1NC(=O)c1sc2nc3c(cc2c1N)CCCC3 | inactive: 17.9% | –
41 | CCOc1cc2[nH]c(=O)n(Cc3ccc(C(=O)NCCN(CC)CC)cc3)c(=O)c2cc1OCC | inactive: -13% | –
42 | CCCCNc1sc(S(=O)(=O)CC)nc1S(=O)(=O)c1ccc(C)cc1 | inactive: -19.6% | –
43 | CNS(=O)(=O)c1cn(CC(=O)Nc2ccc(F)cc2F)cc1S(=O)(=O)NC | inactive: -6.57% | –
44 | Cc1ccc(N2CC(c3nnc(Cc4ccc(Cl)cc4)o3)CC2=O)cc1 (centres undefined) | inactive: -31.5% | –
45 | CC(=O)Nc1cc(C(=O)NCc2ccccc2)ccc1Sc1ccc(C)cc1 | inactive: -19.2% | –
46 | Cc1cccc(C(=O)Nc2ccc(-c3nc4ccccc4s3)c(C)c2)c1 | inactive: 31.5% | –

Row | Structure (SMILES) | activity change, negative = inhibition | Potency
47 | CO[C@H]1C[C@@H]2CC[C@@H](C)[C@@](O)(O2)C(=O)C(=O)N2CCCC[C@@H]2C(=O)O[C@H]([C@H](C)C[C@@H]2CC[C@H](OC(=O)C(C)(CO)CO)[C@H](OC)C2)CC(=O)[C@H](C)C=C(C)[C@@H](O)[C@@H](OC)C(=O)[C@H](C)C[C@H](C)C=CC=CC=C1C | inactive: -16.7% | –
48 | CCN(c1ccc(OC)cc1)S(=O)(=O)c1c(C(=O)N2CCCCCC2)c(C)n(C)c1C | inactive: -9.91% | –
49 | COc1ccc(N2CCN(CC(O)COc3ccccc3C(C)(C)C)CC2)cc1 (centres undefined) | inactive: -23.7% | –
50 | CN(C(=O)CSc1cn(CC(=O)N2CCCCCC2)c2ccccc12)c1ccccc1 | inactive: -13.5% | –
51 | CCOc1ccc(NC(=O)Cn2c(=O)n(CCc3ccccc3)c(=O)c3c4c(sc32)CN(C(C)=O)CC4)cc1 | inactive: -1.73% | –
52 | CCc1ccc(NC(=O)CSC2=Nc3ccccc3C3=NC(CCC(=O)NCc4ccccc4OC)C(=O)N23)cc1 (centres undefined) | inactive: -12.2% | –
53 | CCOCCCNC(=O)c1cnc2sc(N3CCCCCC3)nn2c1=O | inactive: 9.64% | –
54 | Cc1nn(-c2ccccc2)c(OC(=O)c2ccc(Br)cc2)c1S(=O)(=O)c1ccccc1 | inactive: -15.4% | –
55 | CCOc1ccc(OCC)c(NC(=O)c2cc(C)nc3c2c(C)nn3-c2cccc(Cl)c2C)c1 | inactive: -9.35% | –
56 | Cn1c(=O)c2sccc2n2c(CCCC(=O)Nc3ccc(F)cc3F)nnc12 | inactive: -8.53% | –
57 | Cc1cc2nn(-c3ccc(Cl)cc3)nc2cc1NC(=O)C(C)C | inactive: -78.3% | –
58 | C[C@@H]1C[C@H]2[C@@H]3CCC4=CC(=O)C=C[C@]4(C)[C@@]3(F)[C@@H](O)C[C@]2(C)[C@@]1(O)C(=O)CO | inactive: 16.1% | –
59 | COc1ccc2c(c1)c1c(c(=O)n(-c3ccccc3C)c(=O)n1Cc1ccccc1C)n2C | inactive: 0.449% | –
60 | O=C(c1ccc2c(c1)OCO2)c1cn(Cc2ccc(F)cc2)c2ccccc2c1=O | inactive: -25.2% | –
61 | Cn1nc(C(=O)N2CCN(c3ccccc3)CC2)c2c1-c1ccccc1SC2 | inactive: -15.1% | –
62 | CCCCN(CC)C(=O)Cn1c(=O)n(-c2ccc(OCC)cc2)c(=O)c2c3c(sc21)CCC3 | inactive: 3.6% | –
63 | CCCOC(=O)c1c(NC(=O)c2nc3ncccn3n2)sc(C(=O)OCC)c1C | inactive: -10.7% [at 11.5 µM] | –
64 | CC(=O)c1cccc(-n2c(=O)c3c4c(sc3n(Cc3ccccc3Cl)c2=O)CN(C(C)=O)CC4)c1 | inactive: 0.985% | –
65 | COc1cc(OC)c(C2C=C(C(=O)O)Nc3ncnn32)cc1OC (centres undefined) | inactive: -6.31% | –
66 | COc1ccccc1CNC(=O)c1cn(C)c2ccc(S(=O)(=O)N3CCC(C)CC3)cc2c1=O | inactive: 0.759% | –
67 | Cc1cc(C)c(NC(=O)CSc2nc(C)cc(C)c2C#N)c(C)c1 | inactive: -0.642% | –
68 | O=C(CN1Cc2ccccc2C1=O)Nc1cc(F)ccc1F | inactive: -10.2% | –
69 | COc1ccc(Nc2ccc3cc(S(=O)(=O)N4CCCC4)ccc3n2)cc1Cl | inactive: 0% | –

Row | Structure (SMILES) | activity change, negative = inhibition | Potency
70 | COc1ccccc1OCC(=O)N(Cc1ccc(N(C)C)cc1)CC1CCCO1 (centres undefined) | inactive: -4.91% | –
71 | CCOc1ccc(-n2c(SCC(=O)Nc3ccccc3OC)nc3c(oc4ccccc43)c2=O)cc1 | inactive: -12.5% | –
72 | CC(=O)c1ccc(NC(=O)C2CCN(S(=O)(=O)c3ccc4c(c3)CCCN4C(=O)C3CCC3)CC2)cc1 | inactive: -6.56% | –
73 | Cc1ccc2oc(=O)c3cnn(CC(=O)N(C)c4ccc(F)cc4)c3c2c1 | inactive: -7.21% | –
74 | CCCSc1nc(=O)c2c(n1C)NC(=O)CC2c1cccc(F)c1F (centres undefined) | inactive: -11.4% | –
75 | CCc1ccccc1NC(=O)CN(Cc1ccccc1)S(=O)(=O)c1ccc2nc(C)sc2c1 | inactive: -23% | –
76 | COc1ccc(N2CCN(C(=O)Cc3c(C(=O)O)c(C)cn3C)CC2)cc1 | inactive: -16.3% | –
77 | CCOC(=O)c1c(NC(=O)CCCOc2ccc(C(C)(C)C)cc2)sc2c1CCC2 | inactive: -9.11% | –
78 | COc1ccc(-n2nc3ccc(NC(=O)COc4ccc(C)c(C)c4)cc3n2)cc1 | inactive: 13.2% | –
79 | CCc1cc(C(=O)Nc2cnn(Cc3ccc(F)cc3)c2)no1 | inactive: -8.68% [at 11.5 µM] | –
80 | CC(C)Oc1ccc(C(=O)N[C@H](CNC(=O)CN(C)C)Cc2ccc(-c3cn4cccc([C@H](C)O)c4n3)cc2)cc1Cl | inactive: -19.3% | –
81 | CC(=O)c1cccc(NC(=O)c2cnn(-c3cccc(C)c3)c2-n2cccc2)c1 | inactive: -14.2% | –
82 | O=C(O)COC(=O)Cc1ccccc1Nc1c(Cl)cccc1Cl | inactive: -3.91% | –
83 | COc1ccccc1CCNC(=O)CCn1c(=O)c2cccn2c2ccc(F)cc21 | inactive: -7.18% | –
84 | Cc1cc(C)cc(NC(=O)CSCn2nnc3c(=O)[nH]c(Cc4ccc(F)cc4)nc32)c1 | inactive: -22.9% | –
85 | Cc1noc(/C=C/c2ccco2)c1S(=O)(=O)N1CCC(C(=O)Nc2ccc(F)cc2F)CC1 | inactive: -17.6% | –
86 | CCCCN(Cc1ccccc1)C(=O)CN(C)S(=O)(=O)c1ccc2c(c1)c(=O)n(C)c(=O)n2C | inactive: -14.6% | –
87 | CCOC(=O)c1cccc(NC(=O)Cn2c(=O)nc(-c3ccccc3)c3ccccc32)c1 | inactive: -10.1% | –
88 | O=C(Nc1cc(C(F)(F)F)ccc1Cl)c1cc(S(=O)(=O)NCc2ccccc2)ccc1F | inactive: -33% | –
89 | Cc1cccc(OCc2ccc(-c3nc(C#N)c(N4CCC(C(N)=O)CC4)o3)o2)c1 | inactive: -6.5% | –
